Sequences with one replicate were seen in a single cluster, so their values are uncertain.
The sequences below were run on ATP (assay: switch fluorescence ratio, 500 uM ATP over buffer (Cy3 cluster intensity, sum of 5 cycles each) (fold (ratio)); higher = stronger signal-on switching upon ATP binding; sequences stand for … in TCGTCGGCAGCGTCAGATGTGTATAAGAGACAGTTTTTTTTTTTTTTTTTTTTTTTTT…TC). Conditions: aptamer strand: ATP DNA aptamer (quencher-CACCTGGGGGAGTATTGCGGAGGAAGG + anchor), 100 nM annealed; ATP concentration: 500 uM; one replicate.
In short: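 Per cluster, summed Cy3 intensity from the target cycles was divided by that from the buffer cycles to give the fluorescence ratio, then averaged per switch-domain sequence. Clusters outside 100-1000 RFU were excluded. The Cy3-labelled switching-strand clusters, on a modified Illumina MiSeq flow-cell, were annealed to 100 nM quencher-labelled ATP aptamer and imaged in selection buffer, then after 15 min with 500 uM ATP at 22 °C, for five cycles with NaOH stripping and re-annealing between them.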
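Further: ATP exposure 15 min at 22 °C before imaging.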

Sequence	switch fluorescence ratio
ACGTGCTTCA	1.06
TGACAACGTG	1.03
AACGCAACAG	2.22
GAATATAAAA	0.981
GGGAACTCAT	0.988
TTTACAGCGC	1.06
GCATGAGCGA	1.06
TCTGAGGAGA	0.979
CCCCATATTG	1.08
CGTTATTAAG	0.952
TACAGCGCGG	0.969
AAGCAGTTGA	1
TTAAGTCAAT	1
AACGATTTGT	1.05
GCCGTTGAGG	1.01
CTAGCGAGGA	1.05
GACACGCCTT	1.04
GGCAAAAAAT	0.977
ACATCGACAG	1.1
TCTTTTCACG	1.02
ACTCTGGAGG	1.01
GGTGGTATG	1.02
TAATTCGGCC	0.977

Sequence	switch fluorescence ratio
ATGAATTGAG	0.984
TAAGATCAGG	0.992
TCTGGAAACC	1.12
AGGTGGCAAC	1.02
TAGCGTCGGC	1.01
CGACTCTAAT	1.19
AGAGTTTA	0.978
ATGTTGGCGC	0.994
AAGTAACGGC	1.06
CACGTAGAGC	1.05
GCTCTGGGTC	1.02
CTGCAAAGAA	1.02
GCTTGCAGGG	1.01
AGGCGCGTCA	0.999
CAAGCTCTGG	1
TCGTGCTTTC	1.02
CCGGTTTGAC	1.38
CAAGGTGGTA	1.04
CGTGAGTCCT	1.01
CAGACTTGTA	0.967
TTCGTAAGCT	1.07
TTCTTTAACG	0.981
ACATCGGTGG	0.967

Sequence	switch fluorescence ratio
TTTAATTG	1.07
TAAGCTTCTG	1.02
TATAGCTGTA	1.1
ATCCGGTATA	1.07
CGCGAGACTG	2.67
TGACGGGGCT	1.01
TAAGCCGCTT	1.03
AGGGCACA	1.12
CGGAATCTTC	1.21
TAGTAGATA	1.02
GCGGATTCTG	1.02
ATGCGCCGGG	0.973
TGGTGAATTC	1.02
GCTTACATT	0.992
AAGGAAAGAG	1.01
AAACGAAATC	1.07
GGGGTGCTGT	0.968
TCTACTTTTT	0.995
TTTGAAGGCG	0.991
CACGGCGTGG	0.971
GGGCTGACGA	1.19
GGCCTTCTAC	1.19
CGCTGAATGG	1.08

Sequence	switch fluorescence ratio
AGGCTGTG	1.06
GTTAAATGGG	1.06
GCCTTACTAA	1.18
TCTTTGCTTT	1.04
TCTGTGATTT	1.12
TTCACTGCCT	1.13
TCCCCCCTAA	0.969
ACTACGTAGT	1.01
AGGGTTGGAT	0.995
CACGTGCATT	1.06
TCCTGTAACT	1.05
AAGCATCCAT	1.02
GTCAACATGA	1.01
GATTGCGTC	1.02
CATAACGATG	1.01
ACTACCTAAG	1.11
TCGTAGATGG	1
GTGTAAAGAG	1
CCGCTTTCGG	1.09
GACTGGATTC	1.02
TTAAGCCAAA	1.04
CAAAAGTTTC	0.989
CCATTCGTAA	2.68

Sequence	switch fluorescence ratio
CGGGTCGGTC	0.947
CGTCTATCGG	0.975
AAAATTGTGG	0.991
GCGACGTGTG	1.02
GCAGGGCGTT	0.995
ACAAGTAGAA	0.992
GCTGATGCGA	1.04
AACCAGCAAT	5.02
TCCAACGGCT	0.982
GGAGGATGTG	1.02
GTCAAAGAGT	1.02
AATGCCCAGT	1.01
TTGCATTCC	1.82
CTAATGAGCC	1.01
TTGTGTACGT	0.954
CCGCAGAAGG	2.37
GACCTTCATG	1.03
GATAAAGATT	0.984
ACTCCGTATT	4.41
GGATTGTGTG	0.954
CCCGATGCGG	2.24
GCCGTGTGGA	1.05
CCAGGAGGTC	0.987

Sequence	switch fluorescence ratio
GTTAGCCCCG	1.04
AATTCCTGCC	1.49
TATCTTTTAA	1.03
GGATTGAGA	1.03
ATGCGTACT	1.01
TGCTACATTG	0.989
GAAGATGTTA	0.998
GAAGACTCCA	1.06
GGGCATTCTA	0.986
AATTTGAAGC	0.988
AGCGGCTTAA	0.977
CTTTATAGTC	0.97
TTAGCAGTGT	1.03
CGCGTTAATT	0.98
TCGAGAGTCA	0.976
ACTCTTTTAG	1.06
GTGTGGGATT	0.982
TAGTGGTTGT	0.996
GGTTCGGCGA	0.959
AGATGGATA	0.982
GCTCAGTATT	0.996
CCCGTACGAG	1.18
TTCATTCTTG	1.01

Sequence	switch fluorescence ratio
TTGGACTCT	0.977
GGGCTCATTA	0.977
TCAAATCAGA	1.02
TGGTTCATCC	1.26
CCTCTTCCCG	1.48
GACTTGCGGG	1
CATCTATGTT	1.03
CCGGGCGGTC	1.68
GTGACGGAGG	0.982
ATGTGAAAAC	1.01
AAGGTCCCAC	0.982
TCGAGGAAAT	1.06
CTAGTGTTCC	1.04
ACTAAATGA	1.01
CTTATGTTAC	1.07
AGGGGAGCCA	0.954
TGCTATGCTG	0.981
GGCCAATGGT	1.01
TTATACATAT	1.06
